The values that follow come from the BET-seq Pho4 binding data (Le et al. 2018).

Some of the results follow. Values were computed here from the reads of four pooled replicates and scatter widely.

The test deals with T1, Pho4 (S. cerevisiae) (UniProt P07270).
T1 sequence: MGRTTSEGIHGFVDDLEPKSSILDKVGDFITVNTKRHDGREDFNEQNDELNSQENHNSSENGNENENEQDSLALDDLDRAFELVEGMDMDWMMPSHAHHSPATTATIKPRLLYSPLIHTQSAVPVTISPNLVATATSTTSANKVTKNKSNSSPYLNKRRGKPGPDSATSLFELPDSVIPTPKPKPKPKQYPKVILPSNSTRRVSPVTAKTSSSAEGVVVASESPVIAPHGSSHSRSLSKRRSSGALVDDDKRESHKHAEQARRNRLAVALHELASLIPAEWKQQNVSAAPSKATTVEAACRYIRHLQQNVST
As to the kind of experiment: relative binding free energy (BET-seq); higher = weaker binding. As to conditions: reference: library average.
For ATTATCACGTGTAGGA, the “relative binding free energy” value stood at 0.22 kcal/mol.
For AAGAGCACGTGAGTTA the value was 0.2 kcal/mol.
In the case of TGCGTCACGTGTGGAT, the “relative binding free energy” value came to 0.14 kcal/mol.
For AATAGCACGTGGTTGA the value was -0.13 kcal/mol.
On to ATTATCACGTGAGTGG, for which the “relative binding free energy” value is 0.23 kcal/mol.
On to TGCGTCACGTGGTCAT, for which the “relative binding free energy” value turned out to be 0.08 kcal/mol.
Next, GTTAACACGTGGGCGT: -0.05 kcal/mol.
In the case of TTAATCACGTGATTCG, the “relative binding free energy” value was found to be 0.27 kcal/mol.
With ATGTTCACGTGAGCAT, the “relative binding free energy” value turned out to be 0.35 kcal/mol.
Next, TGTGACACGTGGTTAA: -0.06 kcal/mol; CATGGCACGTGTTGTA: -0.04 kcal/mol; TGTATCACGTGATAGA: 0.14 kcal/mol.
On to TATGTCACGTGTATTA, for which the “relative binding free energy” value is -0.02 kcal/mol.
For GGATTCACGTGGCGTT, the “relative binding free energy” value amounted to 0.37 kcal/mol.
With TGTAACACGTGATTTA, the “relative binding free energy” value was determined as 0.26 kcal/mol.
For TAGGACACGTGTGTTT the value was 0.21 kcal/mol.
As for CTGCACACGTGGGGGT, the “relative binding free energy” value is -0.21 kcal/mol.
Next, CGGGTCACGTGGATGT: 0.05 kcal/mol; AAAGTCACGTGTTGTT: 0.02 kcal/mol; TGCAACACGTGAAGGT: 0.31 kcal/mol.
For GCTTGCACGTGTGGTA the value was -0.03 kcal/mol; for TTGCGCACGTGGTTTC, -0.17 kcal/mol.
Next, CTGCACACGTGTGTTT: 0.1 kcal/mol; CTGAGCACGTGGGGTC: -0.26 kcal/mol; TGGACCACGTGAAGGT: 0.32 kcal/mol.
As for GAATTCACGTGAGTCT, the “relative binding free energy” value was 0.52 kcal/mol.
For AATATCACGTGAGAGT the value was 0.34 kcal/mol; for ACGCGCACGTGGTGTG, -0.24 kcal/mol.
On to AAGGTCACGTGGAATT, for which the “relative binding free energy” value was found to be 0.21 kcal/mol.
With GAATGCACGTGCGAGG, the “relative binding free energy” value is -0.01 kcal/mol.
Next, AGTAGCACGTGGGAAT: -0.06 kcal/mol.
Next, TTGTCCACGTGTGCGG: 0.01 kcal/mol.
AGGGCCACGTGGGTAA: the “relative binding free energy” value was -0.22 kcal/mol.
Next, TGAGTCACGTGGTTGC: -0.01 kcal/mol; AGGTCCACGTGTATGG: -0.05 kcal/mol.
Next, TGTGGCACGTGTAGGC: -0.06 kcal/mol; TTTTTCACGTGCTAAT: 0.23 kcal/mol.
For AGGTTCACGTGCGTAT the value was 0.23 kcal/mol; for GTTTGCACGTGCTTAG, -0.11 kcal/mol.
For the sequence GAGGGCACGTGTGGGA, the “relative binding free energy” value was determined as 0.03 kcal/mol.
For TAAAGCACGTGAAGGT the value was 0.16 kcal/mol; for CGTTGCACGTGTCTGG, -0.02 kcal/mol.
For the sequence AGAGCCACGTGTGAGG, the “relative binding free energy” value is -0.04 kcal/mol.
For AGAACCACGTGGTTGG the value was 0.01 kcal/mol.
Next, ATGGTCACGTGAGTAA: 0.23 kcal/mol.
Next, TGGGTCACGTGTCTTC: 0.2 kcal/mol; TTGGTCACGTGTCGAT: 0.29 kcal/mol.
As to TTTAACACGTGTAATT, the “relative binding free energy” value is 0.08 kcal/mol.
Next, TGTATCACGTGTTTAT: 0.25 kcal/mol; CTGGTCACGTGTTGCA: 0.1 kcal/mol.
Next, GGTGGCACGTGTAGAA: 0.06 kcal/mol.
Next, AAAGTCACGTGGATGT: 0.04 kcal/mol; AGGTGCACGTGTTTTA: 0.06 kcal/mol; CGGATCACGTGGGTAG: -0.06 kcal/mol.
For CAGAGCACGTGGGGGA, the “relative binding free energy” value was -0.26 kcal/mol.
For AACATCACGTGGAGGG the value was 0.18 kcal/mol.
Next, ATGGTCACGTGGTACG: 0 kcal/mol.
Next, GATGACACGTGAATGG: 0.24 kcal/mol; GGTCCCACGTGGGTGG: -0.22 kcal/mol.
As for AGTATCACGTGTATAA, the “relative binding free energy” value is 0.11 kcal/mol.
Next, AGGGTCACGTGTTTTA: 0.17 kcal/mol; GTATACACGTGGAGAG: 0.09 kcal/mol; GAATTCACGTGATGAG: 0.43 kcal/mol.
TAAAGCACGTGGGTTG: the “relative binding free energy” value is -0.22 kcal/mol.
Turning to GGACGCACGTGAGGGG, the “relative binding free energy” value is 0.09 kcal/mol.
For GTTTCCACGTGGTTTC the value was 0.23 kcal/mol.
For the sequence ATCGGCACGTGAGTAT, the “relative binding free energy” value worked out at 0.13 kcal/mol.
Next, TTTAACACGTGCGGTA: -0.04 kcal/mol; GTGAACACGTGGTGCT: -0.02 kcal/mol.
GGATCCACGTGGGGAG: the “relative binding free energy” value was -0.04 kcal/mol.
For GGGGCCACGTGGTTAT the value was 0.04 kcal/mol; for CTTGTCACGTGGAGAG, 0.05 kcal/mol.
TGGTCCACGTGATGTG: the “relative binding free energy” value was 0.17 kcal/mol.
Next, ATATGCACGTGGGATA: -0.14 kcal/mol; GGACTCACGTGGGAGG: 0.08 kcal/mol; GGATACACGTGAATTT: 0.37 kcal/mol.
Next, TGGTCCACGTGGGGAT: -0.19 kcal/mol; ATTACCACGTGCGGGG: -0.08 kcal/mol; CCGGGCACGTGTGGTG: -0.02 kcal/mol.
With AGTCGCACGTGATGGT, the “relative binding free energy” value came out at 0.11 kcal/mol.
For TCCTACACGTGTTGGA the value was 0.38 kcal/mol.
For AAGGTCACGTGGAGGC the value was 0.07 kcal/mol; for GGGATCACGTGGCGGC, 0.16 kcal/mol.
Next, ATGTTCACGTGTGCAT: 0.34 kcal/mol; CTAGGCACGTGAGGGC: -0.03 kcal/mol.
Take TGGGACACGTGTGCTA: the “relative binding free energy” value was -0.05 kcal/mol.
Next, TCGTTCACGTGAGGTC: 0.51 kcal/mol.
Next, GGGTTCACGTGGACTT: 0.32 kcal/mol; GTTGGCACGTGGCAAA: -0.07 kcal/mol.
In the case of TAGGGCACGTGGGGAT, the “relative binding free energy” value is -0.08 kcal/mol.
Next, TGCGGCACGTGGTGGC: -0.14 kcal/mol; GTAGGCACGTGAGTTA: 0.17 kcal/mol.
For TTTGGCACGTGTGCGA the value was -0.05 kcal/mol.
Next, GAGGGCACGTGCGTGC: -0.11 kcal/mol; GGTCTCACGTGGGTGA: 0.21 kcal/mol; TTAATCACGTGGGAGG: 0.01 kcal/mol.
GGTGACACGTGTAATG: the “relative binding free energy” value was found to be 0.03 kcal/mol.
For GAGGGCACGTGGCAGT the value was -0.16 kcal/mol; for GGTGCCACGTGATGGG, 0.12 kcal/mol.
With TGATTCACGTGTTGGG, the “relative binding free energy” value came out at 0.27 kcal/mol.
Next, TTTTGCACGTGCTTTT: -0.01 kcal/mol.
Next, TTACGCACGTGGTGAG: -0.17 kcal/mol; TGATTCACGTGCAGGT: 0.25 kcal/mol.
For GTTTTCACGTGCTCGG the value was 0.27 kcal/mol; for TCCTTCACGTGGGTGG, 0.07 kcal/mol.
Regarding ATGTTCACGTGGAATG, the “relative binding free energy” value was 0.21 kcal/mol.
Next, TCAGGCACGTGTGCGG: -0.16 kcal/mol; TGAGGCACGTGCAGGC: -0.05 kcal/mol.
Next, CGGGTCACGTGGAGAG: 0.08 kcal/mol.
With GGCGTCACGTGTGGGG, the “relative binding free energy” value turned out to be 0.14 kcal/mol.
In the case of ATGTGCACGTGGCATT, the “relative binding free energy” value is -0.23 kcal/mol.
For TGAGTCACGTGGGTTA the value was 0.12 kcal/mol; for AGTGCCACGTGTGAGG, 0.14 kcal/mol; for GGAGTCACGTGGTACG, 0.12 kcal/mol.
Next, TGGGTCACGTGTGTTA: 0.1 kcal/mol.
For TAATTCACGTGATAGG the value was 0.25 kcal/mol.
With AGAGACACGTGAGTTT, the “relative binding free energy” value stood at 0.35 kcal/mol.
Next, TACAGCACGTGTAGGG: -0.16 kcal/mol; AAATGCACGTGAGGGA: 0.19 kcal/mol; GTTGTCACGTGGATGC: 0.27 kcal/mol.
For CGCATCACGTGTGGGT the value was 0.12 kcal/mol.
For GTGAGCACGTGCAGGG the value was -0.19 kcal/mol; for TTCTTCACGTGTTCGT, 0.25 kcal/mol.
Take AGCATCACGTGTAGTT: the “relative binding free energy” value worked out at 0.24 kcal/mol.
Next, TTTTACACGTGGCTAG: 0.13 kcal/mol.
For TCTATCACGTGGTATT the value was -0.03 kcal/mol; for AATCGCACGTGGAGGT, -0.01 kcal/mol; for CAGGTCACGTGAGGCG, 0.21 kcal/mol.
Next, GATTGCACGTGGATTA: 0.1 kcal/mol.
Consider GTATGCACGTGGGGCA, for which the “relative binding free energy” value is -0.18 kcal/mol.
Next, AGCGTCACGTGTGGGC: 0.08 kcal/mol.
For AGTATCACGTGTTAGG the value was 0.34 kcal/mol; for GTATTCACGTGGTTAG, 0.22 kcal/mol; for TAGGTCACGTGGTAAG, 0.14 kcal/mol.
Next, CTTGTCACGTGTGGGT: 0.16 kcal/mol; TTAGACACGTGGGAGT: -0.04 kcal/mol; GTGTGCACGTGAGCGT: 0.22 kcal/mol.
In the case of GGTACCACGTGTGATT, the “relative binding free energy” value was 0.13 kcal/mol.
For CGTTTCACGTGTTAGG the value was 0.38 kcal/mol; for GTATTCACGTGGGGCC, 0.16 kcal/mol.
As for GGCGTCACGTGTGTTA, the “relative binding free energy” value came out at 0.12 kcal/mol.
For TTGCTCACGTGAGATT, the “relative binding free energy” value was 0.4 kcal/mol.
Next, GGGAGCACGTGAGATT: 0.22 kcal/mol; TAAGGCACGTGTTTTC: -0.06 kcal/mol.
For TTATTCACGTGGATGC the value was 0.3 kcal/mol; for GGGGGCACGTGGAAAT, 0.02 kcal/mol.
